In all, about 81,000 sequences were measured (“one-hybrid fitness for binding NBS DNA”: median about -0.1, highest 2% from about 0.36 on). The list shows a part of the results.
B1: Caulobacter ParB omega fusion; a variant is named by its letters at X, in order, B8GW30 (parent)
chain: MESVVVGEPGMSEGRRGLGRGLSALLGEVDAAPAQAPGEQLGGSREAPIEILQRNPDQPRRTFREEDLEDLSNSIREKGVLQPILVRPSPDTAGEYQIVAGERAWRAAQRAGLKTVPIMVRELDDLAVLEIGIIENVQRADLNVLEEALSYKVLMEKFERTQENIAQTIGKSXSHVANXMRLLXLPDEVQSYLVSGELTAXHARAIAAAADPVALAKQIIEGGLSVRETEALARKAPNLSAGKSKGGRPPRVKDTDTQALESDLSSVLGLDVSIDHRGSTGTLTITYATLEQLDDLCNRLTRGI

Variants of: B1
Assay: one-hybrid fitness for binding NBS DNA (the Noc-binding site; scaled: cognate 1, non-cognate 0); higher = stronger binding
Conditions: with NBS DNA site
Method in brief: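 In E. coli USO, a HIS3 reporter with its site placed 19 bp from the promoter was used to select Caulobacter ParB variants randomised at four specificity codons. Growth lasted 48 hours at 37°C on histidine-free M9 containing 0.1 mM IPTG and 5 mM 3-AT. Fitness was taken as the log change in variant-to-wild-type read ratio from Illumina sequencing of pre- and post-selection plasmids, rescaled between the non-cognate and cognate sites.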

one-hybrid fitness for binding NBS DNA, 0.446:
PRKW

one-hybrid fitness for binding NBS DNA, 0.329:
QTNC

one-hybrid fitness for binding NBS DNA, ≤ 0.2:
VRYF
SFTN
MSPV
MYFT
RFQW
VKKW
RFDL
QLTC
ESRY
SGHA
KLKV
REEE
QRYP
PFAQ
QVCQ
YHTC
PFHM
VCVL
MQSI
MKAS
VSEN
PAKQ
RFGE
PVSG
HMVR
KARY
PSMD
PFRT
HHGG
FFGC
RAWK
VMIR
SMSR
YVSA
ARDM
IICT
VQSI
FNCR
ANTG
VHVT
CSFG
VTMS
RMSV
QYWG
QWHC
NGSA
LFPP
GDDA
DWPL
NGVF
IAFR
REGA
FLTL
VSSV
LRVW
SCML
STSR
GDFV
ICKG
FDHG
CING
RINI
MEYN
DAGG
RISN
GIPI
GYGT
ITRM
AFLR
RHEQ
STSP
RAHK
PRMS
AIQV
HLPW
EILT
HNDY
DTRM
LTEF
SNPD
LKHP
MSMP
ENYV
PSSR
FLPD
SNFG
TRAS
TAWP
RCPM
VKDD
SYFG
FRRG
LWHW
SIRC
YVPG
IDSR
TWWS
EAYV
KMWG
RNSQ
SIED
IVTS
TQPD
KLTF
HRFR
RGFE
HINC
WLFS
CELG
LYSD
DRHI
MPTN
AAIS
RQWI
TQRH
IIWR
AAKA
DGWT
YGRS
SNRP
KRTI
YALW
NNPR
WATC
PVRY
IHNG
QIHN
AACR
EYHT
CHSP
VALD
RTCQ
SPHS
TAAR
KYNA
RDVT
NNAC
ECVS
AHWP
MSMR
FAAD
QLDI
NDHA
GLVI
FIKG
YSSA
LCAC
CNPT
RSIW
IHIM
SDGS
AEDA
KTVS
IFSI
SSPT
ELMF
NDLM
ISQS
SPGR
TTDF
RSAY
AHTE
TDDS
YIFG
GHML
EGCL
HTSC
IYPK
LYEG
IDVS
NWNC
MTTG
KTTL
SYQG
MLPS
SYDF
KLYE
TALK
TTSL
SFKI
RNCR
RMTK
TTGS
KVKS
IKYL
GVNF
YVVC
GQRD
DRFK
WHIG
CPKA
PFSD
LSPQ
ELYT
ERVS
SPYA
RMGD
KYSL
TAAQ
PINM
FTMS
RPRR
PWKN
QVII
YIER
FCDL
HNYT
QDER
QLIW
APPI
SDDY
QTLG
NGRS
TTVG
MSHP
MSTT
NSPV
DMLR
GKLR
STPF
VRQA
AMPE
MVHT
NVVY
HVDI
YKSK
ITVY
QQSQ
DVVM
PAWF
RGCK
ASVT
TIEW
QKAL
HYCW
IQAN
ASNH
YDRK
WQVG
NTHM
TNWS
AYHW
TLKF
PFRS
MQCG
RQLW
GLPV
TCSD
IMHS
TEFR
EWLS
EGPM
LKQD
CYDY
ETPS
LQFS
GTNV
CGCS
KPAI
YDTV
NPTF
QQSF
PNTA
IRVY
TSFS
VNTK
YAAA
IGRY
VYNV
SQRH
KSLC
RENF
IIAM
RKLD
VKGC
PMLV
RLSL
VYHP
HPSA
TQTN
VRWS
WTFR
ERIR
APRR
KQTH
AQTR
FSCC
VTGI
DCLC
DYPV
VYKT
RDMT

one-hybrid fitness for binding NBS DNA, 0.263:
RFHT

one-hybrid fitness for binding NBS DNA, 0.723:
QSRT

one-hybrid fitness for binding NBS DNA, 0.22:
RAIT
QCHN

one-hybrid fitness for binding NBS DNA, 0.514:
RYNT

one-hybrid fitness for binding NBS DNA, 0.277:
QKFS

one-hybrid fitness for binding NBS DNA, 0.357:
RYRC

one-hybrid fitness for binding NBS DNA, 0.628:
RRWS

one-hybrid fitness for binding NBS DNA, 0.236:
QIVT

one-hybrid fitness for binding NBS DNA, 0.237:
QRCD

one-hybrid fitness for binding NBS DNA, 0.396:
RYKH

one-hybrid fitness for binding NBS DNA, 0.764:
QCGR

From a collection of fitness landscapes (doi:10.1016/j.celrep.2020.107928)
